B1: CPEB3 Ribozyme (parent)
chain: UAACAGGGGGCCACAGCAGAAGCGUUCACGUCGCAGCCCCUGUCAGAUUCUGGUGAAUCUGCGAAUUCUGCUGUAUAUCUC

Read counts are not given, so values of variants with three or more changes are uncertain.

The variants in this data set derive from B1. Description: self-cleavage, relative activity (ratio to wild type); higher = more cleavage; in vitro, sequencing. An outline of the steps:
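For each CPEB3 ribozyme variant, relative activity is its cleaved/total read fraction divided by the unmutated ribozyme's. Barcoded error-prone PCR libraries were transcribed by T7 RNA polymerase (5 hours, 37°C) and held in DNase I for 15 min before an EDTA stop, with cleavage occurring throughout. Template-switching reverse transcription and Illumina sequencing were used to read the RNAs. A 5-read minimum applied, and results are the mean of three batches.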
As for U25C U41A U51C, the self-cleavage was 0.34.

On to U26A A47U U72A U74A, for which the self-cleavage turned out to be 0.55.

With U25C U31C U69C U72C, the self-cleavage was 0.01. The same measure for U25C U54A U80A: 0.3; for U26A A35U U80C: 0.55; for U25G A65G U67C: 0.13. For U25C U72C A77G, the self-cleavage came out at 0.16. For the variant U26A C32U A45G U49A A56U A57G, the self-cleavage worked out at 0.06. The same measure for U25C U54A A56U: 0.4; for U25C U41A A64G U67A U69C U76C: 0.13; for U25C U26G C44U: 0.59. In the case of U26A A28G U60C A64U U78C it was 0.09. In the case of U25C U43A U49C it was 0.15; in that of U25C U49C A57G, 0.29; in that of U26A A35U U41A U60C A77U, 0.1.

Consider U25C U41C G55A U80A, for which the self-cleavage was 0.1. The same measure for U25C U51A U67C A75U: 0.07; for U25C U51C U60A: 0.15; for U25C U54C A56U: 0.22. Consider U25G A28G A35G C39G U49C U72C U80G, for which the self-cleavage is 0.2. The same measure for U25C U51A U54C A57U: 0.06. On to U25C U49C A56G C62A U67C U78C, for which the self-cleavage was determined as 0.09.

For U25C U26C A35C A45U, the self-cleavage is 0.1.

Turning to U25C U26C A35G U67C C81U, the self-cleavage was 0.11.

U25C U58A U78C: the self-cleavage is 0.32. The same measure for U25C U41C U58C U69A U72A: 0.26; for U26A C38U A65G U66C U69C: 0.19; for U26A C27U A28G C40G U51C U54C: 0.33. The same measure for U25C U72A U74C: 0.2.

For the variant U25C U51C A57G, the self-cleavage stood at 0.23. As to U25C U26C U72C, the self-cleavage was found to be 0.24.

As to U26A A56G A65C, the self-cleavage came to 0.16. For the variant U25C U31A U51G, the self-cleavage worked out at 0.31. For the variant U26A C38U G61A, the self-cleavage came to 0.24. In the case of U25C U48C U58C U67C it was 0.08. In the case of U25G A35U U51G G63A A65G G73C it was 0.19; in that of U25C U49C U51A U54C G55A U78A, 0.07; in that of U26A C38U A75U, 1.06. The same measure for U25G U54C U66C: 0.39. In the case of U25C U51A U66G G73U, the self-cleavage is 0.07.

U25C U26C A64G U66A: the self-cleavage came to 0.12.

Turning to U25C U43G G73C, the self-cleavage worked out at 0.3.

U26A A45G U49C A57C: the self-cleavage amounted to 0.2. The same measure for U25C U31C U41A U48C A56U U80C: 0.06; for U25C U60A U72C: 0.47. On to U26A A64U U72A, for which the self-cleavage is 0.39.

In the case of U25C U43C A56G U58C U66C U78C, the self-cleavage turned out to be 0.13. In the case of U25C U31C C44A A47G it was 0.38; in that of U25C U48C A57G U58C, 0.08. In the case of U25C U41A U54C U60A it was 0.12. As for U26A A35G U54A G55U G63U, the self-cleavage worked out at 1.26. On to U26A A28G U31C, for which the self-cleavage is 0.14. Consider U26A A28G U31A, for which the self-cleavage came to 0.14. Consider U25C U41C U60C, for which the self-cleavage stood at 0.38. As for U25C U31A U43C U67A A75G, the self-cleavage came to 0.13. For the variant U25C U43C U60C U80A, the self-cleavage came to 0.32.

Turning to U25C U26C A65G U69C U76C, the self-cleavage was 0.1.

Take U25C U43C A56G U58C: the self-cleavage stood at 0.47. In the case of U25C U43C A64G U69A, the self-cleavage was found to be 0.17. The same measure for U25G U41A G73A U78C: 0.07.

Regarding U26A A28U A47G U72A U74A A75G, the self-cleavage turned out to be 1.2. In the case of U25C U51C U80A it was 0.25; in that of U25C U31A U41C U51A U66C, 0.14; in that of U25C U69C U74A, 0.16. The same measure for U25C U26C A45G A56G: 0.1. In the case of U26A A35G C39A A57G it was 0.52.

Consider U25C U26C U31A U43G, for which the self-cleavage worked out at 0.34. For U26A C34U A47G A57G, the self-cleavage was determined as 0.09.

For the variant U25C U31A A35U U43C G52A C79A, the self-cleavage came to 0.07.

Regarding U25C U31A U80C, the self-cleavage turned out to be 0.3.

Regarding U26A C32U U51C A64G, the self-cleavage was determined as 0.08. As to U25C U31A A45G U60A U69A U74A, the self-cleavage was found to be 0.05. As to U26A A47G A64G U74A U78C, the self-cleavage worked out at 0.86. The same measure for U25C U43C U54C C59U G61A: 0.06; for U25G U41C A45G: 0.14; for U25G A35G U43C: 0.44.

In the case of U25C U41C A45G A56U A64G, the self-cleavage amounted to 0.33. With U25C U51A A64G U69C, the self-cleavage stood at 0.1. The same measure for U26A A28U A35G A57G: 1.14; for U25C U26C U43C A64G: 0.36.

Regarding U26A C34A A35G A47G, the self-cleavage was 0.9. The same measure for U25C U51A A64G: 0.14.

As for U25G A65U U74C, the self-cleavage came out at 0.29. In the case of U26A C29U C34U it was 0.1; in that of U26A C32U A35U G63A U67C, 0.06.

On to U25C U41C U69C U80A, for which the self-cleavage came to 0.06. Take U25C U54C U66C: the self-cleavage amounted to 0.27. U25C U26A U58C U74C U80A: the self-cleavage was 0.06. The same measure for U25C U31C U41G C68U U78C: 0.23. As to U25C U31C U49C, the self-cleavage was found to be 0.35. In the case of U25C U51A U67A U69A it was 0.37; in that of U25C U48A U49G U76C, 0.43; in that of U25C U31A U43C U67A, 0.23. In the case of U25C U60A A64G A65G G73A it was 0.2. In the case of U25C U66C A77U it was 0.21.

With U25C U60G U80A, the self-cleavage was 0.09.

Regarding U25C U67A U72C, the self-cleavage was 0.27. As for U25C U31A C71A, the self-cleavage came to 0.08.

U25G U26A U41C U49A U67C: the self-cleavage turned out to be 0.24. The same measure for U25G U72C U80C: 0.45. In the case of U26A A35C A45G U48C, the self-cleavage was 0.1.

For the variant U25G U26A U48C, the self-cleavage was found to be 0.53. For the variant U25C U26C U43C U80C, the self-cleavage was found to be 0.5. The same measure for U25C U54A U67G U72A: 0.27.

In the case of U26A A56G U76C, the self-cleavage worked out at 0.79. In the case of U25C U48A U69A it was 0.12; in that of U25C U66C U69C U80G, 0.05.

Consider U26A A47G U66C, for which the self-cleavage worked out at 0.32. Take U25G A47G U51A U54A U67C U80C: the self-cleavage worked out at 0.08. For U25C U43A U67C U74C, the self-cleavage amounted to 0.15.

For U25C U41A U54A, the self-cleavage came out at 0.21. Turning to U25C U66C U67A, the self-cleavage came out at 0.22. The same measure for U25C U67C C68G: 0.07; for U26A A28U A35U U72G U78C: 0.18; for U26A A56G A64U: 0.21. U25C U26C A56G U60A U74A: the self-cleavage is 0.15.

For U26A A47G U69G U78C, the self-cleavage was found to be 0.35. In the case of U25C U26C C62A U69C U72A U80C it was 0.05. On to U26A A28U U49C, for which the self-cleavage amounted to 0.14.

U25C U43A C62U: the self-cleavage is 0.33. In the case of U26A C34U U41A A75U it was 0.27; in that of U25C U49C C81U, 0.06; in that of U25C U51G A65G U80C, 0.08. The same measure for U25C U26C U31C: 0.23; for U25G C37U U54C A56G C62A U78C: 0.13; for U25C U74C A75U: 0.16.

Take U25G G33A U41A U58C U60A C68U: the self-cleavage is 0.12. The same measure for U26A A35C A56U A57G C59A: 0.3.

As to U25C U41A U58C, the self-cleavage was found to be 0.24.

As to U25C U31C A56U A77U U80C, the self-cleavage turned out to be 0.12. The same measure for U25C U31G U60C: 0.14; for U25C U31A A57G U69C: 0.07. In the case of U25G U66A U69C it was 0.07; in that of U25C U51C U78A, 0.18; in that of U26A C29U U43A, 0.19.

Regarding U25C U48C U49C A64G, the self-cleavage was determined as 0.4. In the case of U25C U43C U58G it was 0.14; in that of U25C U43G C71U, 0.14. In the case of U25C U72A U78C it was 0.23.

With U25C U60C A75G, the self-cleavage came to 0.11. In the case of U25C U43A U74A it was 0.13; in that of U25C U41A U49C A56G, 0.29. Turning to U25C U60C A77G, the self-cleavage stood at 0.16. Consider U25C U43G U48A U69A, for which the self-cleavage was 0.06.

Turning to U25C U43A A77U C81U, the self-cleavage was 0.25. Regarding U25C U51C U60A A65G, the self-cleavage stood at 0.09.

As to U26A C32U U51C A65G U76C U80C, the self-cleavage came out at 0.15.

As for U25C U72C A75G, the self-cleavage was found to be 0.39.

As to U25C U51A U60C, the self-cleavage turned out to be 0.2. With U25C U43A U51G A56G, the self-cleavage was 0.06. The same measure for U26A C40A U41C: 0.39; for U25C U26C A35U U72C: 0.07. As to U25C U43C A47G U51A U66C U72C, the self-cleavage was 0.14.

As for U25C U49C U51A U76A, the self-cleavage amounted to 0.07. In the case of U26A A57G U72A U76A it was 0.54; in that of U26A A28U U74A, 0.87.

For U25C U54G A75U, the self-cleavage worked out at 0.07. On to U25C U41C G63A, for which the self-cleavage was 0.15. In the case of U25C U49C U74A it was 0.24; in that of U25C U48C C59U, 0; in that of U26A A28G A75U U80C, 0.5. Turning to U26A A28G U49A U78C U80A, the self-cleavage is 0.09. In the case of U25C U26G A56G it was 0.15; in that of U25C U26C A64U U67C, 0.28; in that of U26A A65G C81U, 0.28. In the case of U25G A47G U78A it was 0.63. Take U25C U31A U43C U54C: the self-cleavage stood at 0.3.

These data come from the RNAGym collection of RNA variant scans (doi:10.1093/nar/gkz1192).
